Reference: ChEMBL document CHEMBL4888484, “Replenishing the malaria drug discovery pipeline: Screening and hit evaluation of the MMV Hit Generation Library 1 (HGL1) against asexual blood stage Plasmodium falciparum ,using a nano luciferase reporter read-out” (2022)
The campaign covered roughly 150,000 compounds. About 540 (0.36%) showed an effect of 50% or more. This is one part of the list.

system: Plasmodium falciparum; experiment: Primary screen in NF54 nanoGlo assay, in single point, at 2uM, 72h; a lower Z score goes with more inhibition; type: functional, Erythrocyte; details: timepoint 72 hour

SMILES | % Inhibition [%] | Z score
Cc1ccc(C(=O)N2CCC(N3C(=O)CC[C@H]3C(=O)NCc3cccnc3)CC2)s1 | -20 | 2.12
COC(=O)C1=C(C(=O)OC)SC(=C2C(=S)C(C)(C)N(C(=O)CN3C(=O)CCC3=O)c3c(OC)cccc32)S1 | -8 | 0.93
COc1c(Cl)cc(NC(=O)NCC(=O)N(C)C)cc1Cl | -6 | 0.97
FC(F)(F)C1C2CCC(O2)C1c1nc(Cc2cncs2)no1 (stereo not drawn) | -11 | 1.45
COc1cc(=O)c(C(=O)N2CCCCCC2)nn1-c1ccc(C)cc1 | 27 | -3.92
C[C@@H]1CN(C(=O)CCCc2ccc(O)c(F)c2)CCN(C2CCC2)C1 | -2 | 0.28
CCc1ncnc(NC2CCCCC2C(N)=O)c1F (stereo not drawn) | 5 | -0.8
O=S(=O)(c1ccccc1Cl)N1CCC2(CC[C@@H]2O)CC1 | 0 | 0.04
O=C(NCc1ccon1)c1cc(=O)[nH]c2cc(F)ccc12 | -2 | 0.23
CCOC1(c2nc(-c3ccc4cncn4c3)no2)CCCC1 | -2 | 0.28
CC(C)(C)OC(=O)N1[C@@H](CN2CCCC3(C2)OCCO3)COC1(C)C | -12 | 1.18
Cc1cnc(C(=O)Nc2ccccc2-c2nc3ccccc3s2)cn1 | 2 | -0.23
COCC(=O)N[C@@H]1CC[C@H]2CCOc3ccccc3C(=O)N3CCN(Cc4ccc(Cl)c(F)c4)C[C@H]3C(=O)NC[C@H]1O2 | -1 | 0.19
Cc1ccc(S(=O)(=O)N2CC(=O)N(c3ccccc3C)[C@](C)(C(=O)NC3CCCC3)C2)cc1 | -17 | 2.09
CC(C)COC(=O)N1CCC2(CCC(=O)N(CCc3ccccc3)C2)CC1 | -6 | 1.04
c1ccc2oc(N3CCC(NCCc4cn[nH]c4)CC3)nc2c1 | -4 | 0.46
COC1COCCC1CC(=O)Nc1ccc2c(c1)CCC2 (stereo not drawn) | 0 | 0
COCC(=O)n1nc(Nc2ccccc2OC)cc1Nc1ccccc1OC | 7 | -1.06
O=C(c1cc(O)nc2ccccc12)N1CCC[C@H](n2cccn2)C1 | -17 | 2.71
O=C(O)CCc1ccc(-c2ccc(F)cc2)n1NC(=O)c1ccccc1Cl | 29 | -3.33
CCCn1nc(C)c(Br)c1C | -5 | 0.5

SMILES | % Inhibition [%] | Z score
COc1ccc(C(=O)NCc2ccc3c(c2)CCN3C(=O)C(C)C)cc1 | -12 | 1.09
CNS(=O)(=O)c1cc(Br)cnc1N | -12 | 1.78
COCC1(C)CCN(C(=O)[C@H]2C[C@@H]2c2ccc(OC)cc2)CC1 | -6 | 1.25
CCn1ccnc1CN1CCCn2nc(CNC(=O)N(C)C)cc2C1 | -2 | 0.31
N#CCN1CCN(C(=O)CC2=CCCCC2)CC1 | -11 | 1.44
CCN1CCC(N(C)C(=O)CCc2ccc(O)c(Cl)c2)C(C)C1 (stereo not drawn) | 6 | -0.54
O=C1CC[C@@]2(CCCN(C(=O)c3ccccn3)C2)CN1CCc1c[nH]cn1 | -4 | 0.75
Cc1cc(C)c(C#N)c(N2CCC[C@H](N3CCOCC3)C2)n1 | -15 | 1.88
O=C(NC1CC1)[C@@H]1COC2(CCN(C(=O)c3ccc4c(c3)OCO4)CC2)N1C(=O)c1ccccc1 | -11 | 1.58
Cc1cc(C)nc(NCCC(=O)NCC2CCOCC2)n1 | -8 | 0.8
COc1ccc(C2c3cc(Br)cc(C(=O)O)c3NC(c3ccc(Cl)c(Cl)c3)C2C)cc1OC (stereo not drawn) | 34 | -3.84
O=C(Nc1cccc(F)c1)N1CCCCC[C@H]1c1ccccc1Cl | 7 | -0.93
Cc1cc(C(=O)NC[C@H]2CCCN(c3nccc4cccnc34)C2)ccc1Cl | -7 | 1.09
COc1ccc(Cc2n[nH]c(=O)n2-c2c(C)noc2C)cc1 | 5 | -0.66
COc1cc(=O)[nH]cc1C(=O)N[C@H]1CCCOC1 | -9 | 1.65
CN1[C@@H]2CC[C@H]1CN(Cc1ccccc1OCCCCn1ccnc1)CC2 | -6 | 0.69
COc1ccc(N2C(=O)c3ccccc3N[C@@H]2c2cccc3cccnc23)c(OC)c1 | -5 | 0.79
C[C@@]1(C(=O)NCc2ccccc2)Cn2nc(-c3ccccc3)cc2C(=O)N1CCc1ccc(Cl)cc1 | -2 | 0.25
CCn1ncc(Cl)c1C(=O)N1CCC[C@H](C(C)(C)C(=O)O)C1 | -3 | 0.52
O=c1ncccn1Cc1nc(C2CCCC2)nn1[C@H]1CCS(=O)(=O)C1 | -15 | 2.9
COc1cc(-c2[nH]cnc2-c2ccccc2)cc2c1OCO2 | -6 | 0.77

SMILES | % Inhibition [%] | Z score
Cc1cc(CN(C)C[C@H]2CCCOC2)ccn1 | -1 | 0.21
CC(C)(CC(=O)O)NC(=O)Cc1ccc(Cl)cc1Cl | -11 | 0.92
CC(=O)NC1CCN(CC2=CCCN([C@@H]3C=CCCC3)C2)CC1 | 6 | -0.87
O=C(Cc1c(F)cccc1Cl)N1CCCCCCC1 | -6 | 0.64
C[C@H](NC(N)=O)C(=O)NCCc1ccccc1Br | 4 | -0.47
O=C(c1ccc2noc(-c3ccccc3)c2c1)N1CC[C@H](c2ncon2)C1 | -10 | 1.71
Cc1cccc(C(C)C)c1NCc1csc(CS(C)(=O)=O)n1 | -1 | 0.07
CCN(CC(=O)OC)Cc1c(CO)cnc(C)c1O | -7 | 0.92
CCCCNC(=O)NC[C@H]1CCCS1(=O)=O | 0 | -0.03
Cn1nccc1[C@@H]1CN(C(=O)NCC(C)(C)c2cccnc2)CCO1 | 7 | -1.32
Oc1cc(CCc2nc([C@H]3CCOC3)nn2-c2cccnc2)on1 | -12 | 1.42
CCn1nc(CO)c2c1CCN(c1ncccc1F)C2 | -2 | 0.42
O=C1N[C@H]2CN(C(=O)CCN3CCCC3=O)C[C@@H]2OCc2cn(nn2)CCCOc2cc1ccc2Cl | -26 | 3.27
CCOc1cc(NC(=O)Cc2ccc(OC)cc2)ncn1 | -6 | 1.09
O=C(C[C@H]1C(=O)Nc2ccccc2N1C(=O)c1ccccc1)Nc1cccc(Cl)c1 | -8 | 1.1
Cc1nc(CN2C(=O)c3ccccc3C2=O)n(-c2ccccc2)n1 | -2 | 0.22
COc1ccc(OC)c(-c2c([C@@H]3c4ccccc4C(=O)N3CCc3ccccc3)c3ccccc3n2C)c1 | 7 | -0.89
COCCCN(C)Cc1cc2cc(C)ccc2nc1N1CCC[C@H](O)C1 | -8 | 1.27
COCc1nn(C)cc1C(=O)N[C@H]1CCN(c2cc(Cl)ccc2OC)C1 | 1 | -0.25
OCc1ccc(OCc2nc(C3CCCC3)no2)cc1 | 23 | -2.92
Cc1cc(C)c(C#N)c(N[C@H]2COC[C@@H]2N2CCCC2)n1 | -4 | 0.79

SMILES | % Inhibition [%] | Z score
O=C(Cn1cn[n+](CC(=O)c2ccc(Cl)cc2Cl)c1)c1ccc(Cl)cc1Cl | -19 | 2.76
Cc1cncc(C(=O)N2CC[C@H](N(C(=O)c3cncc(C)c3)C3CC3)C2)c1 | 0 | -0.02
Cc1cnn(C2CN(Cc3nnsc3Cl)C2)c1 | 1 | -0.12
O=C(NC1CCCCCC1c1ccccc1C(F)(F)F)C1COCCO1 (stereo not drawn) | -7 | 0.77
COCCn1nc([C@@H]2CCCN2Cc2ccc(F)c(F)c2)c2c1CCOC2 | -2 | 0.17
COc1ccc(N2CCN(Cc3nnc(C)s3)[C@@H](C)C2)cc1 | -9 | 1.75
Cc1cc(CNC(=O)c2cn(C(C)C)nc2C)no1 | 1 | -0.14
O=C(NCc1cncn1C1CC1)c1ccccc1-n1cncn1 | -3 | 0.51
COc1ccc([C@H](C)N(C)Cc2nc(C)n[nH]2)c(OC)c1 | -4 | 0.41
CCc1nc(CCc2ccc3c(c2)OCO3)n(-c2cccnc2)n1 | -13 | 1.74
CCOc1ccccc1OCC#CCN1CCN(C)CC1 | -22 | 2.39
CC(C)CN1C[C@@H](C(=O)NCc2cccc(F)c2)C[C@@H](C(=O)Nc2ccc(F)cc2)C1 | 5 | -0.98
O=C1COc2ccc(Cl)cc2N1Cc1nc2ccccc2c(=O)[nH]1 | -12 | 1.81
CC(C)[C@H](Nc1ccc(C(F)(F)F)cc1Cl)C(=O)Nc1sc2c(c1C(N)=O)CCC2 | -8 | 1.13
Cc1ccc(-c2noc(CN3N=NC4C(=O)N(c5ccccc5)C(=O)C43)n2)cc1C (stereo not drawn) | -5 | 0.77
C=Cn1cc(CNCc2nnc3n2CCCCC3)cn1 | -1 | 0.06
Cc1nc(C(C)C)sc1CNC(=O)c1ccc(-c2cccc(O)n2)cc1 | -3 | 0.5
CN(Cc1ccco1)C(=O)C[C@]1(c2ccccc2)CC(=O)N(CCCOc2cccnc2)C1=O | -11 | 2.02
O=C(c1ccco1)N1CCN(Cc2nnc3n2CCCCC3)CC1 | -12 | 2.25
CCOc1cccnc1C(=O)N1CCN(CC(F)(F)C(F)F)CC1 | -8 | 1.15
CCCc1nnc(N2C[C@@H]3CN(C4CCCC4)C[C@]3(C(=O)O)C2)s1 | 11 | -1.42
